Experimental data as given in patent US10039838B2, “Car peptide for homing, diagnosis and targeted therapy for pulmonary and fibrotic disorders” (Vascular BioSciences, priority 2010, dated 2018).

Columns and labels:
[1] = system: severely remodeled pulmonary arterial lesions and other organs of SU5416/hypoxia/normoxia-exposed rats; format: in vivo, rat; conditions: FAM-labeled peptide 1 mg/300 g body weight via tail vein, tissues collected 2 hours after injection, FIGS. 5-10
Protocol: FIGS. 5-13 depict varying distributions of CAR and the control peptide CARM in tissues from the late stage SU5146/hypoxia/normoxia exposed rats. Tissue samples were collected 2 hours after injections of FAM-labeled CAR or CARM peptide via tail vein (1 mg/300 g body weight). Low power magnification of lung tissues (FIG. 5), high power magnification of severely remodeled (Grade 4) pulmonary arterial lesions (FIGS. 6-10), low power and high power magnification photos of liver (FIG. 11), spleen (FIG. 12), kidney (FIG. 13). Animal Model Adult male Sprague-Dawley rats weighing approximately 200 g are injected subcutaneously with SU5416 (20 mg/kg; SUGEN Inc), which is suspended in carboxymethylcellulose (0.5% [wt/vol] carboxymethylcellulose sodium, 0.9% [wt/vol] NaCl, 0.4% [vol/vol] polysorbate, 0.9% [vol/vol] benzyl alcohol in deionized water). The rats are then exposed to chronic hypoxia in a hypobaric chamber (10% 02) for 3 weeks and are returned to normoxia (21% 02) for an additional 2 to 10 weeks. Organs (lung, heart, liver, spleen, and kidney) are collected after blood is flushed with 30 ml phosphate buffered saline (PBS). Lungs are inflated via trachea with 10% formalin at a constant pressure of 20 cm H2O. […] Sections were lightly counterstained with hematoxylin, and analyzed using light microscopically (FIGS. 5-13).

[2] = system: catheterized SU5416/hypoxia/normoxia-exposed rats with PAH; experiment: Blood pressure tracing, fasudil with and without CAR; format: in vivo, rat
Protocol: Animal Model Adult male Sprague-Dawley rats weighing approximately 200 g are injected subcutaneously with SU5416 (20 mg/kg; SUGEN Inc), which is suspended in carboxymethylcellulose (0.5% [wt/vol] carboxymethylcellulose sodium, 0.9% [wt/vol] NaCl, 0.4% [vol/vol] polysorbate, 0.9% [vol/vol] benzyl alcohol in deionized water). The rats are then exposed to chronic hypoxia in a hypobaric chamber (10% 02) for 3 weeks and are returned to normoxia (21% 02) for an additional 2 to 10 weeks.
Rats are anesthetized with intramuscular pentobarbital sodium (30 mg/kg). The rats are placed on controlled heating pads. Hemodynamic measurements are performed in anesthetized animals under normoxic conditions. Polyvinyl catheters (PV-1, internal diameter: 0.28 mm) are inserted into the right jugular vein for measurement of right ventricular systolic pressure (RVSP) and into the left jugular vein for drug administration. A microtip P-V catheter (SPR-838, Millar Instruments) is inserted into the right carotid artery and advanced into the left ventrical (LV). The signals are continuously recorded by MPVS-300 system with PowerLab/4SP, A/D converter (AD Instruments), and a personal computer. RVSP, heart rate, maximal left ventriclar systolic pressure, left ventricular end-diastolic pressure (LVEDP), mean arterial pressure (MAP), cardiac output, and stroke volume are measured. If the heart rate falls below 300 beats/min, the measurements are excluded from analysis. At the end of each hemodynamic study, the rat is sacrificed by an overdose of pentobarbital sodium, and organs are removed for various measurements and analyses.
After baseline hemodynamic measurements, a simple mixture of CAR (1 mg/300 g rat), or control peptide CARM, and fasudil (0.1, 0.3, 1, or 3 mg/kg) or each agent alone is injected intravenously, and all hemodynamic parameters are continuously monitored.

[3] = acute iv, CAR 1 mg/300 g rat + fasudil, compared to fasudil alone, FIGS. 18-19
[4] = fasudil 1 to 10 mg/kg with and without CAR, FIG. 21

CARSKNKDC
Detection of peptide in severely remodeled arteries from lung tissue [1]: detected in high intensity in all layers of severely remodeled arteries from lung tissue
Effect of co-administered CAR on right ventricular systolic pressure (RVSP) lowering by fasudil [2, 3]: enhanced the blood pressure lowering effect of fasudil on RVSP
Effect of co-administered CAR with fasudil on left ventricular systolic pressure (LVSP) [2, 3]: only a minor reduction in LVSP
Pulmonary pressure (RVSP), alternative analysis comparing RVSP to systolic aortic pressure (SAP) [2, 4]: selective decrease in pulmonary pressure as measured in the RVSP is present
Systemic effect (SAP), alternative analysis comparing RVSP to systolic aortic pressure [2, 4]: no increased CAR effect systemically
